Reference: IntAct's records for PubMed 20485341

B1: Myeloid differentiation primary response protein MyD88 (Homo sapiens), Q99836-1 (parent)
chain: MAAGGPGAGSAAPVSSTSSLPLAALNMRVRRRLSLFLNVRTQVAADWTALAEEMDFEYLEIRQLETQADPTGRLLDAWQGRPGASVGRLLELLTKLGRDDVLLELGPSIEEDCQKYILKQQQEEAEKPLQVAAVDSSVPRTAELAGITTLDDPLGHMPERFDAFICYCPSDIQFVQEMIRQLEQTNYRLKLCVSDRDVLPGTCVWSIASELIEKRCRRMVVVVSDDYLQSKECDFQTKFALSLSPGAHQKRLIPIKYKAMKKEFPSILRFITVCDYTNPCTKSWFWTRLAKALSLP
partner: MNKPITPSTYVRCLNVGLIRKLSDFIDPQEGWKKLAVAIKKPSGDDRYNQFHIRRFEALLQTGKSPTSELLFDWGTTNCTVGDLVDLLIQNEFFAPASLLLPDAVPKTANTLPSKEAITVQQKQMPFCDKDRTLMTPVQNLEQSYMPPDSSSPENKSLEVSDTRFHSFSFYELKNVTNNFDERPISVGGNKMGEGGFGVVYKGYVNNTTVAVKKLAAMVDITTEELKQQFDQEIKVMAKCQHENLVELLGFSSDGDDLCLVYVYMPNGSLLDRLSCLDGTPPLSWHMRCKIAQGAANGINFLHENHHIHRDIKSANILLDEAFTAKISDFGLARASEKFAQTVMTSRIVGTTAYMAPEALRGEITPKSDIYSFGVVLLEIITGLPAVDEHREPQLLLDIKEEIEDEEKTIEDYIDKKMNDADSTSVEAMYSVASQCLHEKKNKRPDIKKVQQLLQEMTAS

Variants of: B1
Details: with irak4_human IRAK4, Q9NWZ3

| Variant | effect of a mutation on the interaction |
| --- | --- |
| D55A | disrupting interaction |
| E52K | disrupting interaction |
| V43D | disrupting interaction |
| A44E | disrupting interaction |
| Y58A;R62A | disrupting interaction |

Now from value to variant:

| effect of a mutation on the interaction | Variant |
| --- | --- |
| disrupting interaction | I61A |
| disrupting interaction | R62E |
